{
  "source": "PubChem BioAssay AID485281",
  "about": "(National Center for Advancing Translational Sciences (NCATS), 2010)",
  "note": "The campaign covered roughly 350,000 compounds. About 260 (0.074%) were called active. This list was built around the results that the source calls inconclusive (neither active nor inactive); the mix of calls is not that of the screen. Calls follow the shape of the dose curve; as a rule, active = well fitted inhibition curve with a large enough effect; inconclusive = small, poorly fitted or top-dose-only effect; inactive = no such curve, though single readings can be large or run the other way. A potency beside an inconclusive call is a rough fit, not a confirmed value. % is scaled to controls: 0 for no effect and ±100 for the full control effect; potency is read from the fitted curve at half-maximal effect; tags tell the direction and shape of the fitted curve.",
  "data": [
    {"biological_target": "Ferritin light chain (Equus caballus) (UniProt P02791)", "sequence (P02791 whole entry, looked up)": "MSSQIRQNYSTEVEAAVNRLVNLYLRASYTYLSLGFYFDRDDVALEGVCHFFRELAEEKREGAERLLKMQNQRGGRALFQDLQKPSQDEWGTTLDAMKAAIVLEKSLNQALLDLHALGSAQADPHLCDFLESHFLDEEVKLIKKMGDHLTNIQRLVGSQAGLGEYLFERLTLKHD", "assay": "qHTS Assay for Identification of Novel General Anesthetics; also: nearly all actives have a fitted effect of over 20% in size", "settings": "apoferritin/1-aminoanthracene competitive binding, fluorescence; activity change, negative = displacement: at 77.5 µM (top of the series)", "in_short": "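Concentration-response curves derived by four-parameter Hill fitting of normalized fluorescence, where compounds displaced 1-AMA from 10 uM horse apoferritin following a brief 10 min room-temperature incubation; propofol titration acted as positive control.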", "values": [
      {"smiles": "Cc1ccc(NC2=NCCCS2)cc1Cl", "Potency": "inconclusive: 10 µM [inhibitor, partial curve]"},
      {"smiles": "O=C(CNS(=O)(=O)c1ccccc1)OCC(=O)c1ccc(OC(=O)c2ccccc2)cc1", "Potency": "inconclusive: 12.6 µM [inhibitor, partial curve]"},
      {"smiles": "COc1ccc(OC)c(N2C(=O)NC(=O)/C(=C\\c3ccc([N+](=O)[O-])s3)C2=O)c1", "Potency": "inconclusive: 28.2 µM [inhibitor, partial curve]"},
      {"smiles": "COc1ccc(OC)c(-n2c(O)c(C=NCc3ccc4c(c3)OCO4)c(=O)[nH]c2=O)c1", "Potency": "inconclusive: 44.7 µM [inhibitor, single point]"},
      {"smiles": "COc1ccc2nc(NC(=O)c3nc(S(=O)(=O)Cc4cccc(C)c4)ncc3Cl)sc2c1", "Potency": "inconclusive: 25.1 µM [inhibitor, partial curve]"},
      {"smiles": "Oc1c(Cl)c(Cl)c(Cl)c(Cl)c1Cl", "Potency": "inconclusive: 31.6 µM [inhibitor, partial curve, poor fit]"},
      {"smiles": "O=C1NC(=O)C(=Cc2ccccc2OCCOc2ccc([N+](=O)[O-])cc2)C(=O)N1", "Potency": "inconclusive: 31.6 µM [inhibitor, partial curve]"},
      {"smiles": "Cc1ccccc1-c1nc(CN2C(=O)CN=C(c3ccccc3)c3ccccc32)c(C)o1", "Potency": "inconclusive: 50.1 µM [inhibitor, single point]"},
      {"smiles": "CC[C@@]1(O)C(=O)OCc2c1cc1n(c2=O)Cc2cc3cc(O)ccc3nc2-1", "activity change, negative = displacement": "inactive: 514%"},
      {"smiles": "CCN(CC)C(=O)c1ccc(NC(=O)COc2ccc(-c3nn(C)c(=O)c4ccccc34)cc2)cc1", "Potency": "inconclusive: 12.6 µM [inhibitor, partial curve]"},
      {"smiles": "CCOP(=O)(c1ccccc1)c1nc(-c2ccc(F)cc2)oc1N1CCCCC1", "note": "(stereo not drawn)", "Potency": "inconclusive: 20 µM [inhibitor, partial curve]"},
      {"smiles": "c1ccc(C2CC3CC4(CCCC4)N2O3)cc1", "note": "(stereo not drawn)", "Potency": "inconclusive: 14.1 µM [inhibitor, partial curve]"},
      {"smiles": "COc1ccc(-c2nc3ccccc3c(=O)n2-c2ccc(OC)cc2)cc1", "activity change, negative = displacement": "inactive: -6.43%"},
      {"smiles": "CC1(C)CC(N(CCc2ccccc2)Cc2ccccc2)CCO1", "note": "(stereo not drawn)", "activity change, negative = displacement": "inactive: -7.05%"},
      {"smiles": "Cc1cccn2c(=O)c3c(nc12)N1CCC(Cc2ccccc2)CC1C1(C3)C(=O)N(C)C(=O)N(C)C1=O", "note": "(stereo not drawn)", "Potency": "inconclusive: 17.8 µM [inhibitor, partial curve]"},
      {"smiles": "N#Cc1ccc(Cn2cc(C(=O)c3ccco3)c3ccccc32)cc1", "Potency": "inconclusive: 11.2 µM [inhibitor, partial curve]"},
      {"smiles": "CCCCCCCC/C=C\\CCCCCCCC(=O)OC[C@@H](COP(O)(O)=S)OC", "Potency": "inconclusive: 50.1 µM [inhibitor, single point]"},
      {"smiles": "COc1ccc(CNC(=O)CSCc2cnn(-c3ccccc3)c2-n2cccc2)cc1OC", "activity change, negative = displacement": "inactive: 51.1%"},
      {"smiles": "O=C1NC(=O)N(Cc2ccc(F)cc2)C(=O)/C1=C/c1cccs1", "activity change, negative = displacement": "inactive: -6.54%"},
      {"smiles": "CN(C)c1ccc(CN2CCc3nc(N4CCN(c5ccccn5)CC4)ncc3C2)cc1", "activity change, negative = displacement": "inactive: 40.4%"},
      {"smiles": "Cc1cc(C=C2C(=O)N(C)C(=S)N(C)C2=O)c(C)n1C1CCCC1", "Potency": "inconclusive: 35.5 µM [inhibitor, partial curve]"},
      {"smiles": "Cc1cccc(N2C(=O)NC(=O)/C(=C\\c3cccn3-c3ccc(Cl)cc3)C2=O)c1", "Potency": "inconclusive: 35.5 µM [inhibitor, partial curve]"},
      {"smiles": "Cc1ccc2c(c1)=NC(=O)/C(=C/c1c(O)[nH]c(=O)[nH]c1=O)C=2", "activity change, negative = displacement": "inactive: 92.9%"},
      {"smiles": "C[C@@H]1CC[C@H]2[C@@H](C)C(=O)O[C@@H]3O[C@@]4(C)CC[C@@H]1[C@]32OO4", "Potency": "inconclusive: 35.5 µM [inhibitor, partial curve]"},
      {"smiles": "CN(C)c1ccc(/C=C2\\C(=O)NC(=O)N(Cc3ccc(F)cc3)C2=O)cc1", "activity change, negative = displacement": "inactive: -6.75%"},
      {"smiles": "CCC[N+]12CCC(CC1)C(=C(c1ccccc1)c1ccccc1)C2", "activity change, negative = displacement": "inactive: -2.18%"},
      {"smiles": "CCN1CCN(c2nc([N+](=O)[O-])nn2C)CC1", "activity change, negative = displacement": "inactive: 2.36%"},
      {"smiles": "COc1cc(Cn2c(=O)oc3ccc(C)cc32)ccc1OC(C)C", "Potency": "inconclusive: 0.891 µM [inhibitor, full curve, poor fit]"},
      {"smiles": "CCCC(=O)NC(Oc1ccccc1Cl)C(Cl)(Cl)Cl", "note": "(stereo not drawn)", "Potency": "inconclusive: 39.8 µM [inhibitor, partial curve]"},
      {"smiles": "O=S(=O)(NC1CCCCCCC1)OCC(Cl)(Cl)Cl", "Potency": "inconclusive: 28.2 µM [inhibitor, partial curve]"},
      {"smiles": "COc1ccc(Cc2c(O)[nH]c(=S)[nH]c2=O)cc1", "activity change, negative = displacement": "inactive: -0.433%"},
      {"smiles": "CC(C)[C@@]1(NC(=O)[C@@H]2C[C@H]3c4cccc5[nH]cc(c45)C[C@@H]3N(C)C2)O[C@]2(O)[C@H]3CCCN3C(=O)CN2C1=O", "activity change, negative = displacement": "inactive: -19.6% [at 29.3 µM]"},
      {"smiles": "CC(C)[C@@]1(NC(=O)[C@H]2CC3c4cccc5[nH]cc(c45)C[C@H]3N(C)C2)O[C@@]2(O)C3CCCN3C(=O)[C@@H](Cc3ccccc3)N2C1=O", "note": "(stereo partly drawn)", "Potency": "inactive"},
      {"smiles": "O=C(NC1(C(F)(F)F)Oc2ccc(Cl)cc2O1)N1CCC2(CC1)OCCO2", "note": "(stereo not drawn)", "Potency": "inconclusive: 28.2 µM [inhibitor, single point]"},
      {"smiles": "C/C(=C\\C(=O)c1ccc(Br)cc1)NCc1ccccc1", "Potency": "inconclusive: 31.6 µM [inhibitor, partial curve]"},
      {"smiles": "CCc1ccccc1NC(=O)C(CC)Oc1ccccc1-c1nnc(-c2ccccc2)o1", "note": "(stereo not drawn)", "activity change, negative = displacement": "inactive: -6.55%"},
      {"smiles": "COc1ccc(S(=O)(=O)NCCc2sc3nc(-c4ccc(C)cc4)nn3c2C)cc1F", "Potency": "inconclusive: 3.98 µM [inhibitor, full curve, poor fit]"},
      {"smiles": "CN1C2CCC1CC(OC(=O)c1ccc(Cl)cc1)C2", "note": "(stereo not drawn)", "activity change, negative = displacement": "inactive: -8.1%"},
      {"smiles": "S=C(c1ccc(Cl)cc1)N1CCOCC1", "Potency": "inconclusive: 50.1 µM [inhibitor, single point]"},
      {"smiles": "O=C1/C(=C\\c2ccccc2)C[C@@]2(O)[C@H]3Cc4ccc(O)c5c4[C@@]2(CCN3CC2CC2)[C@H]1O5", "activity change, negative = displacement": "inactive: -8.69%"},
      {"smiles": "CC(=O)Nc1ccc(Nc2c(CCC(C)C)c(C)c(C#N)c3nc4ccccc4n23)cc1", "activity change, negative = displacement": "inactive: 49.3%"},
      {"smiles": "CN(Cc1ccc(OC(F)F)cc1)Cc1nc2c(Br)cc(Br)cc2c(=O)[nH]1", "Potency": "inconclusive: 22.4 µM [inhibitor, partial curve]"},
      {"smiles": "O=C1NC(=O)N(c2ccccc2)C(=O)/C1=C\\c1ccc2c3c(cccc13)CC2", "activity change, negative = displacement": "inactive: 65.2%"}
    ]}
  ]
}
